Values marked as one replicate rest on one cluster of the flow cell; about a third of the high ones do not repeat.
Tested on: ATP
Assay: switch fluorescence ratio, 500 uM ATP over buffer (Cy3 cluster intensity, sum of 5 cycles each) (fold (ratio)); higher = stronger signal-on switching upon ATP binding; sequences stand for … in TCGTCGGCAGCGTCAGATGTGTATAAGAGACAGTTTTTTTTTTTTTTTTTTTTTTTTT…TC
Details: aptamer strand: ATP DNA aptamer (quencher-CACCTGGGGGAGTATTGCGGAGGAAGG + anchor), 100 nM annealed; ATP concentration: 500 uM; one replicate
In short: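 For every switch-domain sequence, the fluorescence ratio is the mean of per-cluster values, each being summed target-cycle Cy3 intensity over summed buffer-cycle Cy3 intensity. Clusters outside 100-1000 RFU were excluded. On a modified Illumina MiSeq flow-cell, the Cy3-labelled switching-strand clusters were annealed to 100 nM quencher-labelled ATP aptamer, imaged in selection buffer and then after 15 min with 500 uM ATP at 22 °C. Five such cycles were run, with NaOH stripping and re-annealing between them.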
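Further: ATP exposure 15 min at 22 °C before imaging.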

| Sequence | switch fluorescence ratio |
| --- | --- |
| CAGGATTATA | 1 |
| CAGGATTCCC | 0.986 |
| CAGGCAGCGC | 1.04 |
| CAGGCCCAAA | 0.962 |
| CAGGCGATAG | 1.04 |
| CAGGCGATCG | 1.05 |
| CAGGCGCTAA | 1.25 |
| CAGGCTCAGC | 1.01 |
| CAGGCTGGGT | 0.969 |
| CAGGGACAAA | 1.01 |
| CAGGGCCGGG | 1.02 |
| CAGGGCTAAT | 0.996 |
| CAGGGCTCTA | 0.983 |
| CAGGGGAACT | 0.992 |
| CAGGGGCATC | 1.04 |
| CAGGGGCGA | 1.72 |
| CAGGGGGAGT | 0.957 |
| CAGGGGTCAA | 1.21 |
| CAGGGGTGCC | 1.01 |
| CAGGGGTGTA | 0.996 |
| CAGGGTGTA | 1.04 |
| CAGGTACGG | 1 |
| CAGGTAGTCC | 1.02 |
| CAGGTATGG | 0.996 |
| CAGGTCGCGT | 1.01 |

| Sequence | switch fluorescence ratio |
| --- | --- |
| CAGGTCTTGT | 0.971 |
| CAGGTTAGAC | 1.34 |
| CAGGTTGAGT | 0.997 |
| CAGGTTGGTA | 1.01 |
| CAGGTTTGCC | 1.04 |
| CAGTAAGGGT | 1.03 |
| CAGTAGAGAG | 1.02 |
| CAGTAGATTC | 1.01 |
| CAGTAGCTTC | 2.15 |
| CAGTAGTAC | 1.58 |
| CAGTATCATA | 0.994 |
| CAGTCAGAAC | 0.995 |
| CAGTCATTT | 1 |
| CAGTCCCTTG | 0.988 |
| CAGTCCGTC | 1.05 |
| CAGTCCTTTA | 0.897 |
| CAGTCGAGGC | 1.01 |
| CAGTCGGG | 1.05 |
| CAGTCGGGAC | 0.993 |
| CAGTCGGTC | 0.986 |
| CAGTCGTTTC | 1 |
| CAGTCTGGAT | 0.989 |
| CAGTCTTCTG | 0.997 |
| CAGTCTTGAC | 0.995 |
| CAGTGAGAA | 1.04 |

| Sequence | switch fluorescence ratio |
| --- | --- |
| CAGTGAGGAT | 0.985 |
| CAGTGATGA | 1.04 |
| CAGTGCACCG | 0.987 |
| CAGTGCACGG | 0.956 |
| CAGTGCCCCT | 1.02 |
| CAGTGCGATG | 0.964 |
| CAGTGCGGTT | 1 |
| CAGTGGATAT | 1.01 |
| CAGTGGCCTT | 1.03 |
| CAGTGTGGAC | 1.02 |
| CAGTTACTAG | 0.993 |
| CAGTTATTCC | 1.08 |
| CAGTTATTTA | 0.965 |
| CAGTTCCACA | 1.04 |
| CAGTTCTACG | 0.955 |
| CAGTTGATTC | 0.981 |
| CAGTTGCACC | 1.06 |
| CAGTTGGTGC | 1.1 |
| CAGTTGTTAG | 1.02 |
| CAGTTTAGGA | 0.991 |
| CAGTTTATAA | 1.05 |
| CAGTTTGGAA | 1 |
| CAGTTTGGCT | 0.968 |
| CAGTTTTCAA | 0.966 |
| CAGTTTTTGC | 0.992 |

| Sequence | switch fluorescence ratio |
| --- | --- |
| CATAAAACAT | 0.998 |
| CATAAACCAT | 0.996 |
| CATAAAGGGA | 1.01 |
| CATAACACAA | 1.04 |
| CATAACCCAG | 1.05 |
| CATAACCCGT | 0.972 |
| CATAACGGA | 1 |
| CATAAGTGCG | 0.985 |
| CATAATTTGA | 0.978 |
| CATACACAAG | 1.04 |
| CATACACATA | 1.08 |
| CATACACTCG | 1.04 |
| CATACCAGTA | 1 |
| CATACCCTCG | 1.02 |
| CATACGGTAG | 0.984 |
| CATACTCACG | 1.45 |
| CATACTTCTC | 1.02 |
| CATAGATAGA | 1 |
| CATAGCCGGC | 1.02 |
| CATAGCGTAG | 0.942 |
| CATAGCTACG | 1.05 |
| CATAGGGGGA | 1.08 |
| CATAGGTCCT | 1 |
| CATAGTGCGG | 1 |
| CATAGTTGGA | 0.985 |
